Drawing on ChEMBL document CHEMBL5606458, “ASAP - ZIKV NS2B-NS3 protease fluorescence single point” (2024), this text covers inhibition for 40 compounds.

The inhibition is the drop in the measured response relative to a control, in per cent.

The whole screen tested about 2,700 compounds, of which about 160 (5.9%) showed an effect of 50% or more. This is one part of the list.

The assay concerns the target Nonstructural protein 3 (Zika virus) (UniProt A0A024AXB9).
[1] abbreviates: PRVABC59, Concentration 50.0 uM, Number of replicates 1.0.
[2] abbreviates: PRVABC59, Concentration 15.0 uM, Number of replicates 1.0.

UniProt A0A024AXB9, sequence (A0A024AXB9 as listed by the source): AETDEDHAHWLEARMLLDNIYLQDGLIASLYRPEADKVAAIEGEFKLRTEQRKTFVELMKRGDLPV

Turning to `O=Cc1ccc(N2CCC(C(=O)NCCc3nc(-c4ccc(Cl)cc4)no3)CC2)cc1`, under setting [1], the inhibition was -7.2%. On to `CC(C)Nc1nc2ccc(C(=O)Nc3cncc(F)c3)cc2[nH]1`, for which the inhibition runs as follows: (PRVABC59, Concentration 49.5 uM, Number of replicates 2.0, Standard deviation 1.4741646134188342 %) -1.02%; (PRVABC59, Concentration 99.01 uM, Number of replicates 2.0, Standard deviation 2.287675471918688 %) 0.621%; (PRVABC59, Concentration 198.0 uM, Number of replicates 2.0, Standard deviation 1.5855689928394727 %) 4.79%. For the compound `Cc1nc(C)c(CN2CCC(c3c[nH]c4cccnc34)CC2)s1`, where the note is “PRVABC59, Concentration 49.5 uM, Number of replicates 2.0, Standard deviation 2.1874753856814944 %”, the inhibition is -6.55%. As to `Cc1cc(CO)c2cccc(NC(=O)c3ccno3)c2n1`, the inhibition was determined as 5.33% (PRVABC59, Concentration 49.95 uM, Number of replicates 2.0, Standard deviation 1.4000623365170772 %) and 19.5% (PRVABC59, Concentration 99.9 uM, Number of replicates 2.0, Standard deviation 2.002239649301327 %). For the compound `O=Cc1ccc(N2CCC(C(=O)Nc3nc(Cl)nc4nc[nH]c34)CC2)cc1`, the inhibition under setting [1] worked out at 22.6%. Take `Cc1cc(CO)c2cccc(Cc3cccc(C(=O)N[C@H](Cc4c[nH]cn4)C(=O)O)c3)c2n1`: the inhibition reads like this: (PRVABC59, Concentration 49.95 uM, Number of replicates 2.0, Standard deviation 1.4262210309264547 %) -4.51%; (PRVABC59, Concentration 99.9 uM, Number of replicates 2.0, Standard deviation 1.1168569567330493 %) -0.957%.

`C[C@H](NC(=O)C1CCN(c2ccc(C=O)cc2)CC1)c1ccc(Cl)cc1Cl`: the inhibition (PRVABC59, Concentration 10.0 uM, Number of replicates 1.0) stood at 9.85%. For `Cc1cc(CO)c2cccc(Cc3ccccc3C(=O)N3CCO[C@@H](CN)C3)c2n1`, the inhibition (PRVABC59, Concentration 99.9 uM, Number of replicates 2.0, Standard deviation 2.9992587541792743 %) is -6.8%. As for `Cc1cc(-c2nn(C)cc2NC(=O)c2ccccc2C(F)(F)F)[nH]n1`, the inhibition (PRVABC59, Concentration 49.5 uM, Number of replicates 2.0, Standard deviation 1.8946804704330402 %) was -3.15%; the inhibition (PRVABC59, Concentration 99.01 uM, Number of replicates 2.0, Standard deviation 0.666066751064398 %) was -1.39%; the inhibition (PRVABC59, Concentration 198.0 uM, Number of replicates 2.0, Standard deviation 1.3743584908968294 %) was 2.3%.

Regarding `Cc1nc2cc(CN3CCC[C@H](c4cc5ccccc5[nH]4)C3)ccc2[nH]1`, the inhibition is, setting by setting: (PRVABC59, Concentration 49.5 uM, Number of replicates 2.0, Standard deviation 1.183547569395641 %) 3.3%; (PRVABC59, Concentration 99.01 uM, Number of replicates 2.0, Standard deviation 1.7843151543908982 %) 8.95%; (PRVABC59, Concentration 198.0 uM, Number of replicates 2.0, Standard deviation 2.0307369880408768 %) 16%. Turning to `CC1CCN(CCCCNC(=O)c2cc(Cl)ccc2NS(=O)(=O)c2ccc(Oc3ccccc3Cl)cc2)CC1`, the inhibition under setting [2] came out at 19%. For the compound `Cc1cnccc1NC(=O)CNC(=O)CC(C)C`, the inhibition (PRVABC59, Concentration 49.5 uM, Number of replicates 2.0, Standard deviation 2.4034449411705934 %) is -2.35%; the inhibition (PRVABC59, Concentration 99.01 uM, Number of replicates 2.0, Standard deviation 3.1298748722876275 %) was -2.94%; the inhibition (PRVABC59, Concentration 198.0 uM, Number of replicates 2.0, Standard deviation 2.7521313401383747 %) is -2.55%. As to `Cc1cnccc1NC(=O)c1ccccc1OCc1ccccc1`, the inhibition by setting is: (PRVABC59, Concentration 49.5 uM, Number of replicates 2.0, Standard deviation 1.0351957624059638 %) -0.547%; (PRVABC59, Concentration 99.01 uM, Number of replicates 2.0, Standard deviation 1.0038673777050886 %) -2.12%; (PRVABC59, Concentration 198.0 uM, Number of replicates 2.0, Standard deviation 2.6833364301600433 %) -4.2%. As for `Cc1cnccc1NC(=O)c1ccnc(C(C)C)n1`, the inhibition (PRVABC59, Concentration 49.5 uM, Number of replicates 2.0, Standard deviation 1.345795845615512 %) stood at 1.22%; the inhibition (PRVABC59, Concentration 99.01 uM, Number of replicates 2.0, Standard deviation 3.3811519385923643 %) was 2.95%; the inhibition (PRVABC59, Concentration 198.0 uM, Number of replicates 2.0, Standard deviation 2.6839011979300893 %) came out at 6.25%.

With `Cc1cc(CO)c2cccc(CC(=O)Nc3nonc3C(N)=O)c2n1`, the inhibition (PRVABC59, Concentration 49.95 uM, Number of replicates 2.0, Standard deviation 0.05598719921229546 %) worked out at 82% and the inhibition (PRVABC59, Concentration 99.9 uM, Number of replicates 2.0, Standard deviation 1.0790078750483718 %) is 86.1%. For `Nc1ccc(C(=O)Nc2nc3ccccc3s2)nc1`, the inhibition (PRVABC59, Concentration 198.0 uM, Number of replicates 2.0, Standard deviation 0.01391082023211164 %) is 1.18%.

On to `CCOc1ccc(CCNC(=O)c2cc(Cl)ccc2NS(=O)(=O)c2ccc(Oc3ccccc3Cl)cc2)cc1OC`, for which the inhibition under setting [2] is 19.1%. Same read-out and setting: then `O=C(c1cc(Cl)ccc1NS(=O)(=O)c1ccc(Oc2ccccc2Cl)cc1)N1CCC(CCN2CCCC2)CC1`, with 10.8%.

For the compound `NCc1cccc(NC(=O)CCN2C(=O)OCc3ccccc32)c1`, the inhibition by setting is: (PRVABC59, Concentration 49.5 uM, Number of replicates 2.0, Standard deviation 3.0701678343726093 %) -2.59%; (PRVABC59, Concentration 99.01 uM, Number of replicates 2.0, Standard deviation 2.6435278888045337 %) -2.9%; (PRVABC59, Concentration 198.0 uM, Number of replicates 2.0, Standard deviation 2.687832866693428 %) -0.913%.

For the compound `O=Cc1ccc(N2CCC(C(=O)Nc3ccc(Br)nc3)CC2)cc1`, the inhibition under setting [1] was 20.6%. As for `O=C(NCc1cocn1)c1cc(Cl)ccc1NS(=O)(=O)c1ccc(Oc2ccccc2Cl)cc1`, the inhibition (PRVABC59, Concentration 49.5 uM, Number of replicates 2.0, Standard deviation 2.920306580150363 %) is -7.64%. Turning to `O=C(c1cc(Cl)ccc1NS(=O)(=O)c1ccc(Oc2ccccc2Cl)cc1)N1CCN(c2ccc(Br)cn2)CC1`, the inhibition under setting [2] turned out to be 18.6%. On to `CS(=O)(=O)C1CCN(C(=O)C2CCN(c3ccc(C=O)cc3)CC2)CC1`, for which the inhibition under setting [1] turned out to be 21.9%. On the same count and under the same terms, then `O=Cc1ccc(N2CCC(C(=O)Nc3ccc4cc(Br)ccc4c3)CC2)cc1`, with 17.1%.

Take `COc1ccc(CNC(=O)c2cc(Cl)ccc2NS(=O)(=O)c2ccc(Oc3ccccc3Cl)cc2)cc1F`: the inhibition under setting [2] came to 26.5%. `CC(C)c1nc(CN(C)C(=O)C2CCN(c3ccc(C=O)cc3)CC2)cs1`: the inhibition under setting [1] turned out to be 26.5%.

As to `COc1cc(COCc2cccnc2OC)nc(N2CCNCC2)n1`, the inhibition worked out at 0.921% (PRVABC59, Concentration 49.5 uM, Number of replicates 2.0, Standard deviation 0.5592032480776322 %); 3.73% (PRVABC59, Concentration 99.01 uM, Number of replicates 2.0, Standard deviation 0.7551145704513664 %); 4.1% (PRVABC59, Concentration 198.0 uM, Number of replicates 2.0, Standard deviation 0.007608349093186591 %). Regarding `Cc1cc(-c2ccccc2C(=O)Nc2cnn(C)c2)cnc1F`, the inhibition was -0.745% (PRVABC59, Concentration 49.5 uM, Number of replicates 2.0, Standard deviation 2.713302417982804 %); -2.37% (PRVABC59, Concentration 99.01 uM, Number of replicates 2.0, Standard deviation 2.16573844358994 %); -1.54% (PRVABC59, Concentration 198.0 uM, Number of replicates 2.0, Standard deviation 2.214774041707614 %). As for `CC(C)(CO)NC(=O)c1cc(Cl)cc(NC(=O)c2ccccc2Oc2cccnc2)c1`, the inhibition (PRVABC59, Concentration 49.5 uM, Number of replicates 2.0, Standard deviation 1.291469927657546 %) was -0.385%; the inhibition (PRVABC59, Concentration 99.01 uM, Number of replicates 2.0, Standard deviation 0.5468063004971834 %) stood at 2.03%; the inhibition (PRVABC59, Concentration 198.0 uM, Number of replicates 2.0, Standard deviation 0.07914301495896872 %) is 5.14%. In the case of `O=C(Nc1ncc(F)cc1Br)c1cc(Cl)ccc1NS(=O)(=O)c1ccc(Oc2ccccc2Cl)cc1`, the inhibition under setting [2] was found to be 23.4%. For `O=Cc1ccc(N2CCC(C(=O)NCCC(=O)NC3CCCCC3)CC2)cc1`, the inhibition under setting [1] turned out to be 24%. As to `NCc1cccc(NC(=O)[C@H]2COCCN2C(=O)OCc2ccccc2)c1`, the inhibition was found to be 1.96% (PRVABC59, Concentration 49.5 uM, Number of replicates 2.0, Standard deviation 1.7393789010050076 %); 2.52% (PRVABC59, Concentration 99.01 uM, Number of replicates 2.0, Standard deviation 3.9759576832783616 %); 4.31% (PRVABC59, Concentration 198.0 uM, Number of replicates 2.0, Standard deviation 2.8125429890667983 %). On to `CN(Cc1cccc(F)c1F)C(=O)c1cc(Cl)ccc1NS(=O)(=O)c1ccc(Oc2ccccc2Cl)cc1`, for which the inhibition under setting [2] worked out at 31.2%. As for `O=Cc1ccc(N2CCC(C(=O)Nc3cccc(Br)c3)CC2)cc1`, the inhibition under setting [1] amounted to 23.9%. As to `COc1ccc(CNC(=O)c2cc(Cl)ccc2NS(=O)(=O)c2ccc(Oc3ccccc3Cl)cc2)c(OC)c1`, the inhibition under setting [2] is 20.6%. In the case of `Cc1nn(C)nc1-c1nn(C)cc1NC(=O)c1ccccc1C(F)(F)F`, the inhibition (PRVABC59, Concentration 49.5 uM, Number of replicates 2.0, Standard deviation 2.2519783556354156 %) is -2.6%; the inhibition (PRVABC59, Concentration 99.01 uM, Number of replicates 2.0, Standard deviation 1.3148531256519356 %) is -2.5%; the inhibition (PRVABC59, Concentration 198.0 uM, Number of replicates 2.0, Standard deviation 2.1602443068586057 %) is -3.44%. As to `COc1nc(Br)cnc1NC(=O)c1cc(Cl)ccc1NS(=O)(=O)c1ccc(Oc2ccccc2Cl)cc1`, the inhibition under setting [2] is 20.7%. Regarding `O=C(c1cc(Cl)ccc1NS(=O)(=O)c1ccc(Oc2ccccc2Cl)cc1)N1CCC(O)(c2ccc(Br)cc2)CC1`, the inhibition under setting [2] was 23.5%.

For the compound `O=C(N[C@H]1CC(=O)N(c2ccccc2Cl)C1)c1cc(Cl)ccc1NS(=O)(=O)c1ccc(Oc2ccccc2Cl)cc1`, the inhibition under setting [2] came out at 17.8%. `O=Cc1ccc(N2CCC(C(=O)Nc3cc(Cl)c(F)cc3F)CC2)cc1`: the inhibition under setting [1] is 26.1%.
